# Source: publication PMC4336329 (PLoS ONE, 2015)
# About 14,000 (4.5%) of roughly 310,000 compounds showed an effect of 50% or more. The effect is printed as a negative number. Some of the results follow.
# Molecular target: human ether-à-go-go-related gene (hERG) potassium channel (human, UniProt Q12809)
# Assay: primary screen, population patch clamp on CHO cells stably expressing hERG
# 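Further: peak tail current of the secondary pulse compared with the same well before compound.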
# Chain of human ether-à-go-go-related gene (hERG) potassium channel (Q12809 whole entry, looked up): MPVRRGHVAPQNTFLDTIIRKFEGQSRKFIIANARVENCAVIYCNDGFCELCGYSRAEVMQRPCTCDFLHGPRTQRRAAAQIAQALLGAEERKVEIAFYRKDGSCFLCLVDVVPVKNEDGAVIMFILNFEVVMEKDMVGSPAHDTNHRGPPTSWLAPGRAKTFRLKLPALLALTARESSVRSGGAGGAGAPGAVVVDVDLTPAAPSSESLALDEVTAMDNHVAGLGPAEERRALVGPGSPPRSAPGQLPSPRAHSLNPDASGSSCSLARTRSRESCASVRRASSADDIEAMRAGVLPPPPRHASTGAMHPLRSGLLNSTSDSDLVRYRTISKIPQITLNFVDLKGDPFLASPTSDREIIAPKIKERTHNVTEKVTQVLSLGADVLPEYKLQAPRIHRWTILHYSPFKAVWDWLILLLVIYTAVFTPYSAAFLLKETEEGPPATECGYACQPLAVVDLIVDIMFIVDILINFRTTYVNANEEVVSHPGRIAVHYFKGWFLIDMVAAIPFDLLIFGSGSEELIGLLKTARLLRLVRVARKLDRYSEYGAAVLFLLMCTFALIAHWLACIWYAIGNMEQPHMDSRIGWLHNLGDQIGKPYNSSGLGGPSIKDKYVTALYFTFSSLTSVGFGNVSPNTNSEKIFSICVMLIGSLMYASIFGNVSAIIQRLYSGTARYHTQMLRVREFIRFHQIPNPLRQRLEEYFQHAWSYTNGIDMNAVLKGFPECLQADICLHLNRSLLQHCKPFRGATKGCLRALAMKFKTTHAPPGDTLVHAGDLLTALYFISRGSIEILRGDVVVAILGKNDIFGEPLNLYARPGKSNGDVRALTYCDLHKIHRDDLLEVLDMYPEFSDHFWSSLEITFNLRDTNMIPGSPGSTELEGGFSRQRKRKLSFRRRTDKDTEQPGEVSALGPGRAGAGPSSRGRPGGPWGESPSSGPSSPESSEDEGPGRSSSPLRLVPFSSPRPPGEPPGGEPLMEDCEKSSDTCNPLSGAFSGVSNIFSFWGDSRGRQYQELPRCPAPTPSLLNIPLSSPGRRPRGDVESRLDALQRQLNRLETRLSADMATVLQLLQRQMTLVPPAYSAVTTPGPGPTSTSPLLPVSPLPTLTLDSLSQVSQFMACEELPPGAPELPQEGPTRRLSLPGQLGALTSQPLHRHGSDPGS
row,SMILES,"hERG current change (%, negative = inhibition) at 10uM [%]"
1,Cc1cc(C)cc(NC(=S)N(CCN(C)C)C(C)c2cccnc2)c1 (stereo not shown),-31.7
2,COc1ccccc1C(=O)N1CCC(C(=O)c2ccc(F)cc2)CC1,-3.13
3,O=C(Nc1cccc(C(F)(F)F)c1)c1cccnn1,-20.1
4,CSCCC(NS(=O)(=O)c1ccc(Cl)cc1)C(=O)OCC(=O)NC1CC1 (stereo not shown),1.29
5,C/C(=N\NC(=O)c1ccc2c(c1)OCO2)c1ccc(O)cc1,13.1
6,Cc1ccc(NS(=O)(=O)c2ccccc2Cl)c2c1CC(C)(C)O2,1.03
7,Cc1ccc(S(=O)(=O)NC(CC(=O)NC2CCCC2)c2ccco2)cc1 (stereo not shown),-3.68
8,COc1ccc(NC2=CC(c3cccc(OC)c3)N(c3ccc(OC)cc3)C2=O)cc1 (stereo not shown),1.72
9,CC(C)(C)/C=N/NC(=O)CNC(=O)c1ccc2c(c1)OCCO2,15.6
10,O=[N+]([O-])c1ccc2c(c1)C(c1ccccc1)=NCCN2,-69.1
11,COc1ccccc1S(=O)(=O)Nc1ccc(S(=O)(=O)Nc2nccs2)cc1,-0.444
12,Cc1ccc2c(c1)-c1ncc(C(=O)c3cc(Br)ccc3O)cc1CO2,15.7
13,O=C(CC1SC(=NCc2ccccc2)NC1=O)Nc1ccccc1 (stereo not shown),10.8
14,Cc1csc(NC(=O)CNC(=O)OCc2ccccc2)n1,1.19
15,CCOc1ccccc1CN1CCC(O)CC1,12.1
16,Cc1oc2cc3oc(=O)c(CCC(=O)NCCC(=O)O)c(C)c3cc2c1C,35.9
17,CCCCc1cc2ccccc2c(OCCN(C)C)n1.Cl,-61.9
18,CCOc1ccc(N2C(=O)C3ON(c4ccccc4)C(c4ccco4)C3C2=O)cc1 (stereo not shown),2.11
19,S=C(NCCc1ccccc1)NC1CC1,24.3
20,Cc1ccc(-c2nnn(CC(=O)N(Cc3cccs3)C(C(=O)NC(C)(C)C)c3ccc(C)o3)n2)o1 (stereo not shown),-12
21,Cc1c(C(=O)Nc2cccc(F)c2)cnn1-c1ccccc1,-3.78
22,CCc1ccc(C(C)NC(=O)C2CCCC2)cc1 (stereo not shown),13.1

row,SMILES,"hERG current change (%, negative = inhibition) at 10uM [%]"
1,O=S1(=O)C=C(Sc2nc3ccccc3s2)c2ccccc21,6.92
2,COc1ccc2oc(C(=O)OCc3c(C)noc3C)c(C)c2c1,14.2
3,CC(=O)O/C(=C\c1cn(C(C)=O)c2ccccc12)C(=O)O,18.8
4,CNc1oc(-c2ccco2)nc1C#N,-24.9
5,CC(C)(C)S(=O)(=O)c1cnc2c(S(=O)(=O)c3ccccc3)cnn2c1N,-9.97
6,COc1ccc(CN(Cc2ccccn2)C(=O)CN2C(=O)C(C)Oc3ccccc32)cc1 (stereo not shown),-3.36
7,CCOC(=O)NC(NC(=S)Nc1ccccc1OC)C(Cl)(Cl)Cl (stereo not shown),21.1
8,CCOC(=O)n1ccc(C(=O)Nc2ccccc2F)n1,4.37
9,Cc1ccc2c(c1)nnn2C1CCN(CC(=O)N2CCN(c3ccc(F)cc3)CC2)CC1,-70.3
10,COc1ccc(OCc2nnc(SCC(=O)Nc3cccc(C(C)=O)c3)o2)cc1,4.32
11,COc1ccccc1NC(=O)Cn1c([N+](=O)[O-])cnc1C,11
12,Cn1c(CCN2CCOCC2)nc2cc(NC(=O)c3cccs3)ccc21,-19
13,CN(C)/C(=N\S(=O)(=O)c1ccc(F)cc1)c1ccccc1,13
14,O=C(NC1C(=O)NNC1c1ccccc1)c1ccccc1 (stereo not shown),-13.1
15,COC(=O)C1=C(c2ccc(S(C)(=O)=O)cc2)C[C@@H]2CC[C@H]1N2C(=O)N1CCCCC1,-1.44
16,COc1ccc(NC(=O)CCC2CCCC2)cc1OC,-1.47
17,O=C(O)CSCC(=O)Nc1ccccc1,-0.892
18,Cc1cc(C)c(C(=O)Nn2c(C)nc3ccccc3c2=O)cc1C,-26.7
19,COc1ccccc1C1C(C(N)=O)=C(C)Nc2nc(CCCO)nn21 (stereo not shown),14.2
20,COCCNC(=O)NC(=O)COC(=O)C12CC3CC(CC(NC(C)=O)(C3)C1)C2,14.3
21,O=S(=O)(c1ccccc1)N1N=C(c2ccc(O)cc2)CC1c1ccco1 (stereo not shown),-0.0746
22,COC(=O)c1cc(=O)n(Cc2ccc3c(c2)OCO3)c(=Nc2ccc(F)c(Cl)c2)s1,17.7

row,SMILES,"hERG current change (%, negative = inhibition) at 10uM [%]"
1,O=c1cc2ncc(-n3cc([N+](=O)[O-])cn3)cn2[nH]1,15.6
2,Cc1cccc(N2CCN(C(=O)c3ccc4c(c3)OCCO4)CC2C)c1 (stereo not shown),-2.67
3,Cc1nnc(NC(=O)C23CC4CC(CC(C4)C2)C3)s1,20.2
4,COc1ccc(CNc2nc(-c3cccnc3)nn2C(C)=O)cc1,-6.28
5,COC(=O)c1cc(OC)c(OC)cc1NC(=S)Nc1cc(Cl)ccc1OC,11.2
6,S=C1NC2=C(CCCC2)C2(CCCCC2)N1,20
7,Cc1ccc(NS(=O)(=O)c2cc(NC(=O)c3cc(=O)[nH]c(=O)[nH]3)ccc2Cl)c(C)c1,-1.05
8,COc1ccc(-c2nn(-c3ccccc3)cc2C2CC(c3cccs3)=NN2C(=O)CCCC(=O)O)cc1 (stereo not shown),17.9
9,O=C(Nc1nnc(-c2ccccc2Cl)s1)C1CCN(S(=O)(=O)c2ccc(Cl)cc2)CC1,28.1
10,C=CCn1c(SCC(=O)Nc2ccc3c(c2)OCO3)nnc1-c1ccccc1,-34.7
11,Cc1ccc(S(=O)(=O)Oc2ccccc2/C=C2/SC(=O)NC2=O)cc1,30
12,CCOC(=O)c1cnc2[nH]c3ccccc3n2c1=O,46.3
13,CCc1cccc(CC)c1NC(=S)Nc1ccccc1,13.4
14,Cc1c(NC(=O)OCCSc2nc(N(C)C)nc(N(C)C)n2)sc(=S)n1C,5.97
15,NC(=O)CC(NC(=O)Cc1ccc(Br)cc1)c1ccc(NCc2ccccn2)c([N+](=O)[O-])c1 (stereo not shown),6.99
16,O=c1c2ccccc2nc2c3ccccc3c(NCCN3CCOCC3)nn12,-72.2
17,CC1=NN(c2ccc(C(=O)O)cc2)C(=O)/C1=C\c1ccc(OC(=O)c2cccs2)cc1,21
18,COc1ccc(/C=C2\CCOC2=O)cc1,-0.536
19,O=C1c2ccccc2C(=O)N1CCCc1nc2ccccc2c(=O)n1-c1cccnc1,-39.7
20,CCN(CC)CCCNc1nc(SC)nc2sc3c(c12)CCN(C)C3,11
21,NS(=O)(=O)c1ccc(CNC(=O)c2sccc2-c2ccccc2)cc1,6.45
22,O=C(Cn1c2ccc(F)cc2c2nc3n(c(=O)c21)CCS3)Nc1ccc(Cl)cc1F,-10.4

row,SMILES,"hERG current change (%, negative = inhibition) at 10uM [%]"
1,Cc1ccc(S(=O)(=O)NCC(=O)OCc2cc(=O)oc3cc(C)ccc23)cc1,-3.27
2,Cc1oc2c(C)c3oc(=O)c(CCC(=O)N4CCC(C(=O)NCCC(=O)O)(c5ccccc5)CC4)c(C)c3cc2c1C,8.02
3,Cc1ccc(C(=O)NCCc2ccccc2)cc1S(=O)(=O)N1CCOCC1,-23.4
4,CC(C)[C@H](NC(=O)N1CCn2c1nc1ccccc12)C(=O)NC1CCCCC1,-11.3
5,N#Cc1cccc(CN2CCC(=O)N([C@H](CO)c3ccccc3)CC2)c1,-4.9
6,Cc1ccc(CNC(=O)C(c2ccccc2)c2ccccc2)cc1,-64
7,O=C(N/N=C/c1cn(-c2ccccc2)nc1-c1cc2ccccc2o1)c1ccccc1Br,-0.551
8,O=C(NNC(=O)C1CCC1)c1ccc(Cl)cc1,6.19
9,COc1ccc(CNC(=O)C2CCN(S(=O)(=O)c3c(C)noc3/C=C/N(C)C)CC2)cc1,-17.4
10,CC1CCCCC1NC(=O)CO/N=C/c1ccc(OC(F)F)cc1 (stereo not shown),-43.7
11,O=C(NCc1ccccc1Cl)C1CCCN(S(=O)(=O)c2cnc[nH]2)C1 (stereo not shown),9.11
12,CN(C)S(=O)(=O)c1ccc(NC(=O)CCNC(=O)c2ccc([N+](=O)[O-])cc2)cc1,-12.7
13,Cc1ccc(OCC(O)CN2CCN(c3ccccc3)CC2)cc1 (stereo not shown),-38.6
14,COc1cccc2cc(-c3nc4ccccc4[nH]3)c(=O)oc12,22.6
15,O=C(c1[nH]ncc1-c1cccc(Br)c1)C1CO1 (stereo not shown),3.39
16,COC(C(=O)NNC(=O)CCc1ccccc1)c1ccccc1 (stereo not shown),24.1
17,CN(CC(=O)Nc1ccc(Cl)cc1)C(=O)CNC(=O)c1cccs1,-11.5
18,Cc1cccc(OCCn2nc(C(=O)O)c3ccccc3c2=O)c1,-40.2
19,[NH-]S(=O)(=O)c1ccccc1.[Na+],4.93
20,O=C(O)c1ccc2c(c1)C(=O)N(C(Cc1ccccc1)C(=O)O)C2=O (stereo not shown),-4.08
21,Cc1ccc([N+](=O)[O-])c2c1C(N1CC(C)OC(C)C1)C(C)(C)O2 (stereo not shown),7.7
22,Cc1nc2ccc(S(=O)(=O)NCC(=O)N(C)Cc3ccco3)cc2s1,-7.68
